Data: PMC4336329 (PLoS ONE, 2015)
Among all 310,000 compounds or so, about 2,200 (0.71%) showed an effect of 50% or more. The effect is printed as a negative number. This is one part of the list.

The compounds below were run against human ether-à-go-go-related gene (hERG) potassium channel (human, UniProt Q12809) (assay: primary screen, population patch clamp on CHO cells stably expressing hERG).
Sequence of human ether-à-go-go-related gene (hERG) potassium channel (Q12809 whole entry, looked up): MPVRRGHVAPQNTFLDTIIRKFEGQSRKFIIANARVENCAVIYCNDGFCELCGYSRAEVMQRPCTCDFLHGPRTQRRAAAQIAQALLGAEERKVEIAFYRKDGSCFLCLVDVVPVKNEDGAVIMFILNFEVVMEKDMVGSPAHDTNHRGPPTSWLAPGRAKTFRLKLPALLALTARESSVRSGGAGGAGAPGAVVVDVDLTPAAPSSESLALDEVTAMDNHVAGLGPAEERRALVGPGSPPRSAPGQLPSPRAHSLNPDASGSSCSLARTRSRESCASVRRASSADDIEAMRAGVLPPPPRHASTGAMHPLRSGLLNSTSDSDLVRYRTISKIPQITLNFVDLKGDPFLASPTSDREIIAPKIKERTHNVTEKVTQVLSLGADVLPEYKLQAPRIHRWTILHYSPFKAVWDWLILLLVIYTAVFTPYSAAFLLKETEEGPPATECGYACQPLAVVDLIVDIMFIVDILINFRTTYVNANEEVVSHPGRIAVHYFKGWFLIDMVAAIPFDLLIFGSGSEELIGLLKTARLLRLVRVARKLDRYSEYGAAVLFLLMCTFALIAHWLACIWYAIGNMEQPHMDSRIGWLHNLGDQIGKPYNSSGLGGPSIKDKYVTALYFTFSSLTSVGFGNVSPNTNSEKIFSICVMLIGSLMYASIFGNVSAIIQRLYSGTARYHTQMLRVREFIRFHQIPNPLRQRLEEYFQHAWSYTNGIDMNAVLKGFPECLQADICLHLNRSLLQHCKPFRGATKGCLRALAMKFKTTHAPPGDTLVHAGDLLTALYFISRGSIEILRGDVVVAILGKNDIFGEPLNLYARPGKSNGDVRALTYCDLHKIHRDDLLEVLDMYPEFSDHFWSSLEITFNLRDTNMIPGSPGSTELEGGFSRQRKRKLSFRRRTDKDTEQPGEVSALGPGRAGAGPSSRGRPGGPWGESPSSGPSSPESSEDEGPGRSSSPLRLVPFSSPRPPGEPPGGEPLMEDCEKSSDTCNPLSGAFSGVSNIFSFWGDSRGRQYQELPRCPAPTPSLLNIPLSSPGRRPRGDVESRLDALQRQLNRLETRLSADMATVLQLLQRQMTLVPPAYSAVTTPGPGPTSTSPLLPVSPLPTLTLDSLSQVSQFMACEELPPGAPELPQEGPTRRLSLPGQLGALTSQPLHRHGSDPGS

| SMILES | hERG current change (%, negative = inhibition) at 1uM |
| --- | --- |
| O=C(NCCCl)Nc1ccc(Cl)c([N+](=O)[O-])c1 | 5.53% |
| C#Cc1ccc([C@@H]2C=C(C(=O)O)O[C@H](OCC)[C@H]2CCCO)cc1 | 19.9% |
| Cc1ccccc1CSc1nnc(NC(=O)C2COc3ccccc3O2)s1 (stereo not drawn) | 1.07% |
| COC(=O)c1cc(NC(=O)C2(S(=O)(=O)c3ccc(Cl)cc3)CC2)cc(C(=O)OC)c1 | -5.65% |
| CCOc1ccc(S(=O)(=O)c2c[nH]c3ccccc3c2=O)cc1 | 8.01% |
| COc1cccc(/C=N/NC(=O)CNC(=O)c2ccco2)c1O | 9.7% |
| CC1Oc2ccccc2N(CC(=O)NC2CCCC2)C1=O (stereo not drawn) | 12% |
| COc1ccccc1N1CCN(C(=O)c2cc(-c3ccc(Cl)cc3)on2)CC1 | 5.86% |
| O=C(NCc1ccccc1)c1ccc(COCC(F)(F)F)o1 | -0.584% |
| C=CCNC(=O)CSc1cc([N+](=O)[O-])cc(S(=O)(=O)Cc2ccccc2)c1 | -5.51% |
| O=C(Nc1ccc2c(c1)OCO2)N1CCN(c2ccccc2Cl)CC1 | 7.93% |
| Cc1[nH]c2ccc(O)cc2c1CCN.O=C([O-])/C=C\C(=O)[O-] | 15.6% |
| CCCS(=O)(=O)N1CCN(C(=O)c2cccc(OC)c2)CC1 | 4.07% |
| COc1ccc(C2N=C(Nc3ccc(C)cc3)Nc3nc(C)cc(=O)n32)cc1 (stereo not drawn) | 15% |
| CCCc1cc(NCCN(C)C)n2c(nc3ccccc32)c1C#N | 7.99% |
| CCCS(=O)(=O)N1CCN(Cc2ccncc2)CC1.O=C(O)C(=O)O | 9.18% |
| S=C(Nc1ccccc1)N1CCN(C/C=C/c2ccccc2)CC1 | -2.07% |
| CCOC(=O)C1(Cc2ccccc2C)CCCN(S(=O)(=O)c2cccnc2)C1 (stereo not drawn) | 9.61% |
| NNC(=O)c1ccc(CN2C(=O)c3cccc4cccc2c34)cc1 | 2.68% |
| O=C(CSc1nnc(-c2ccccc2)c(-c2ccccc2)n1)NCc1ccco1 | -4.49% |
| Cc1cccc(NC(=O)CSC(N)=O)c1C | 13.6% |
| O=C(NC(=S)Nc1ccc(Cl)c(C(=O)O)c1)c1cncc(Br)c1 | 16.2% |
| Cn1cccc1/C=C1\C(=O)NC(=O)N(Cc2ccccc2)C1=O | 10% |
| COc1ccc(/C=C(/NC(=O)c2ccccc2)c2nc3ccccc3[nH]2)cc1OC | 0.582% |
| CCOC(=O)c1nnn(-c2nonc2N)c1COc1ccc(F)cc1 | -7.97% |
| CC(C)(C)c1nc2scc(-c3ccc(Br)cc3)c2c(=O)o1 | 9.4% |
| CC1(C)OC(=O)C(=CNc2ccccn2)C(=O)O1 | 2.23% |

| SMILES | hERG current change (%, negative = inhibition) at 1uM |
| --- | --- |
| CC(C)CC(CO)N1CCN(C(=O)c2ccc(Cl)cc2)CCC1=O (stereo not drawn) | -0.496% |
| O=C(CNS(=O)(=O)c1ccc2c(c1)OCCCO2)N1CCN(Cc2ccccc2)CC1 | 12.2% |
| C/C(=C\c1ccccc1)C(=O)Nc1ccc(S(=O)(=O)Nc2ncccn2)cc1 | 10.9% |
| Cn1cc(S(=O)(=O)Nc2ccc(OC(F)(F)F)cc2)c(=O)n(C)c1=O | 14.5% |
| COc1cc(CC(=O)NC(c2ccccc2)c2ccccc2)cc(OC)c1OC | 13.5% |
| CC(C)(C)C(=O)Nc1ccc(C(=O)N/N=C/c2ccccc2OC(=O)c2ccc(Cl)cc2Cl)cc1 | 7.9% |
| CCOC(=O)C1=CN(Cc2ccc(OC)cc2)C=C(C(=O)OCC)C1c1cccs1 | 12.4% |
| COC(=O)C1C(=O)/C(=C/N(C)C)C(=O)CC1(C)C (stereo not drawn) | 8.87% |
| CN1CCN(C(c2ccc(Br)cc2)c2cc(Cl)c3cccnc3c2O)CC1 (stereo not drawn) | 6.2% |
| N=c1oc2ccc3ccccc3c2cc1-c1nnc2n1CCCCC2 | 5.57% |
| O=C(O)C1CC=CCC1C(=O)NCCc1ccccc1 (stereo not drawn) | 14.8% |
| CC1CN(Cc2ccccc2)c2nc3c(c(=O)n(C)c(=O)n3C)n2C1 (stereo not drawn) | -16.8% |
| Cc1ccc(C(=O)Nc2ccc(C)c(S(=O)(=O)N(C)C)c2)s1 | 8.91% |
| CCN(CC)S(=O)(=O)c1ccc(N2CCN(C)CC2)c(NC(=O)CSCC(=O)Nc2cccc(C)c2)c1 | 7.65% |
| CCN1CCN(c2ccc(S(=O)(=O)N3CCOCC3)cc2NC(=O)/C=C/c2ccc(OC)c(OC)c2)CC1 | 21.9% |
| COc1cc(OC)cc(C(=O)NCC(=O)NCCN2C(=O)S/C(=C\c3ccccc3Cl)C2=O)c1 | 4.11% |
| CC1(C)CC(=O)C(C(c2cccnc2)C2C(=O)CC(C)(C)CC2=O)C(=O)C1 | 2.02% |
| Cc1c(NC(=O)c2cccs2)cccc1NC(=O)c1cccs1 | 5.14% |
| CCOc1ccc(-n2c([S-])c(C(=O)Nc3ccc(S(=O)(=O)N4CCOCC4)cc3)[n+]3cc(C(N)=O)ccc23)cc1 | 12.1% |
| Cc1cccc(C)c1NC(=O)CS(=O)CC(=O)Nc1ccc(F)cc1F (stereo not drawn) | 22.2% |
| CCOc1ccc(S(=O)(=O)NCc2ccccc2)cc1C(N)=O | 23.3% |
| O=C(c1cc(N2C(=O)C3C4CCC(C4)C3C2=O)ccc1Cl)N1CCN(c2ccccc2)CC1 (stereo not drawn) | 8.36% |
| CCc1ccc(OCC(=O)NNC(=O)c2cc(S(=O)(=O)N3CCOCC3)ccc2N2CCCC2)cc1 | 1.63% |
| CN(C)c1ccc(/C=N/NC(=O)CN(c2ccccc2Cl)S(C)(=O)=O)cc1Br | 1.98% |
| O=C(Nc1cccnc1)c1cc(-c2ccccc2O)on1 | 11.3% |
| COc1ccc(-c2nc(C#N)c(NCC3CCCO3)o2)cc1OC (stereo not drawn) | 7.63% |
| CSCCC(NC(=O)c1ccccc1)C(=O)NCC(C)(C)N1CCOCC1 (stereo not drawn) | 8.1% |
